Test results reported in article PMC6919601, “Identification of Plasmodium dipeptidyl aminopeptidase allosteric inhibitors by high throughput screening” (PLoS ONE, 2019).
Hit rate of the full screen: of about 110,000 compounds, about 230 (0.21%) showed an effect of 50% or more. The list shows a part of the results.

Each molecule was assayed against DPAP1 (Plasmodium falciparum, UniProt Q8IIJ9) (assay: primary screen, percent inhibition; read by cleavage of a fluorogenic dipeptide substrate; higher = more effect of the substance).
Set-up: species or system P. falciparum D10 trophozoite lysates; single well
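Note: 30 min substrate incubation versus DMSO and 10 µM JCP410 controls.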

Sequence of DPAP1 (Q8IIJ9 whole entry, looked up): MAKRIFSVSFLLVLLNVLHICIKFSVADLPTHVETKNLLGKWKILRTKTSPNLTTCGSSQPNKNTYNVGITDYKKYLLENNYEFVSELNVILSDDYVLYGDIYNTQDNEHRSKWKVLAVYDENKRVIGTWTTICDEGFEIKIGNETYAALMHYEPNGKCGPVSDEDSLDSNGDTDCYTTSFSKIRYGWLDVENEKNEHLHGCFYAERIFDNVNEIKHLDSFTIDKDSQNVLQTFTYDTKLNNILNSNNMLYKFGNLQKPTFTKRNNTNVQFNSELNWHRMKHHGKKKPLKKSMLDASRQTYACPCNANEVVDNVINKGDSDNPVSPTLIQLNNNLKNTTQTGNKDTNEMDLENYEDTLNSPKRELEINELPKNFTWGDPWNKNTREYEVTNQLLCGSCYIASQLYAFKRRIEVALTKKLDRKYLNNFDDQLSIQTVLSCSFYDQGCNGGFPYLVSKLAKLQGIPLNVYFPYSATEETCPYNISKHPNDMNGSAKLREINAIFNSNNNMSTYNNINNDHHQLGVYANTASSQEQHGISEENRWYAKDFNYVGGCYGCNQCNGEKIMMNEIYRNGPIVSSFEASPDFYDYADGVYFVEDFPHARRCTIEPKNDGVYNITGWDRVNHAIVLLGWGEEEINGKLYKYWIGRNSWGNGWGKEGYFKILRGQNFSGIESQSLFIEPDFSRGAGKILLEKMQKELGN

SMILES	% Inhibition @ 10 uM [%]
Cc1ccc2c(CNCc3ccccc3F)c(C(=O)O)n(Cc3ccccc3C)c2c1	-1.45
Cc1ccc(NC(=O)Nc2ccc(C)c(F)c2)cc1	5.37
CCOC(=O)c1nnn(-c2ccccc2OCC)c1C(=O)OCC	-1.58
Cc1cc2c(n1-c1ccc(C(=O)NCc3ccco3)cc1)CCCC2	-4.16
CN(CCCc1ccco1)S(=O)(=O)c1csc(C(N)=O)c1	-3.98
Cc1ccc(C2CC(C(F)(F)F)n3ncc(C(=O)NCc4c(C)nn(C)c4C)c3N2)cc1 (stereo not shown)	2.32
CCOC(=O)c1c(NC(=O)c2ccccc2)sc(C(=O)N2CCCCC2)c1C	-2.87
CCOc1ccccc1N1CCN(C(=O)c2ccc3c(c2)OCO3)CC1	1.4
O=C(O)CCC(=O)Nc1ccccc1C(=O)NCCc1ccccc1	-0.872
Cc1nnc(NC(=O)CSc2ccc3nnc(CCNS(=O)(=O)c4ccccc4)n3n2)s1	-2.26
O=c1c2ccccc2nc(-c2ccccc2)n1CCCn1ccnc1	2.76
Cc1ccccc1C1C2=C(O)c3ccccc3C2=Nc2c1c(=O)[nH]c(=O)n2C (stereo not shown)	5.65
CCOc1cccc(=O)c2c(C)n(-c3ccc(C)c(C)c3)c(C)c12	-0.711
Cc1nsc2ccc(Cl)cc12	55
CCN(CC)CCCCOc1cccc(C)c1	1.87
S=C(Nc1ccccc1)N1CCCCCC1	2.62
Clc1ccc(CNC23CN4CN(CN(C4)C2)C3)c(Cl)c1	-0.756
O=C(Cc1ccc(F)cc1)N1CCC(c2nc(O)c3nnn(Cc4ccsc4)c3n2)CC1	5.35
COc1ccc(CN2CCCCC2CO)c(OC)c1 (stereo not shown)	3.65
COCc1cc(O)n2nc(SCc3ccccc3)nc2n1	2.31
COc1cc(OC)cc(C(=O)N2CCN(C(=O)c3ccccc3F)CC2)c1	4.55
Fc1ccc(N2CCN(Cc3ccccc3Br)CC2)cc1	-6.47

SMILES	% Inhibition @ 10 uM [%]
COc1cc(CN2CCN(Cc3ccncc3)CC2)cc(OC)c1O	0.131
COc1ccc(C(=O)/C=C/c2ccc(OC)c(CN3CCOCC3)c2)cc1	1.52
CCOC(=O)c1c(C(=O)OCC)c(C)n(CCc2c[nH]c3ccccc23)c1C	0.238
COc1ccc(C2=NN(S(C)(=O)=O)C(c3cc4ccc(OC)cc4nc3Cl)C2)cc1 (stereo not shown)	-0.85
CN1C(=O)C2Cc3c([nH]c4ccccc34)C(c3ccc([N+](=O)[O-])cc3)N2C1=S (stereo not shown)	-1.29
COc1cc(OC)cc(C(=O)N2CCN(C3CCC(c4ccccc4)CC3)CC2)c1 (stereo not shown)	-3.37
CN1CCN(S(=O)(=O)c2cccnc2Nc2cccc(C(F)(F)F)c2)CC1	-1.73
CN(C(=O)CCc1nc(CN2CCN(C(=O)c3ccc4c(c3)OCO4)CC2)no1)C1CCCCC1	-0.717
Cc1cccc(C(=O)NCCc2ccc(S(N)(=O)=O)cc2)c1	-14.6
O=C(c1cccs1)N1CCC(c2ccccc2)C1 (stereo not shown)	-2.87
CCc1ccc(Oc2nc3ccccn3c(=O)c2/C=C(\C#N)C(=O)N2CCOCC2)cc1	-0.828
O=C(Cn1cc(SCc2ccc(F)cc2)c2ccccc21)N1CCOCC1	4.54
Cc1ccc(-n2nc(C)c3c(C)c(CCC(=O)NC(C)(C)C)c(C)nc32)cc1C	-8.02
FC(F)(F)c1ccccc1CN1CCN(C/C=C/c2ccccc2)CC1	-1.92
Cc1cccc(Cn2cnc3c(nnn3Cc3ccccc3F)c2=O)c1	-0.431
COc1ccc(-c2cc(C(=O)N3CCOCC3)c3c(-c4ccc(Cl)cc4)[nH]nc3n2)cc1	11.7
CC(C)Cn1c(=O)c2ccccc2n2c(CCC(=O)NC3CCCCC3)nnc12	0.981
CCN1CCC(NCCc2ccc(Cl)cc2Cl)CC1	2.71
Cc1ccc2onc(CNC(=O)NCCN(C)C3CCCCC3)c2c1	-1.11
CC(C)c1ccc(S(=O)(=O)c2cnc(S)nc2N)cc1	6.41
CCO/C(O)=C1\C(C)=Nc2ncnn2C1c1c[nH]c2ccccc12 (stereo not shown)	-5.51
Cc1ccc(S(=O)(=O)Cc2ccc(C(=O)NCc3cccs3)o2)cc1	2.14

SMILES	% Inhibition @ 10 uM [%]
Cc1cccc(OCc2nc3c4c5c(sc4ncn3n2)C(C)(C)NC(C)(C)C5)c1C	-3.28
CN(CC(=O)Nc1ccc2c(c1)OCO2)S(=O)(=O)c1ccccc1	-5.98
CS(=O)(=O)C1=NN2C(=N)/C(=C\c3ccc(-c4ccccc4Cl)o3)C(=O)N=C2S1	0.163
Cc1ccc(N2CCN(Cc3[nH]cnc3C)CC2)cc1	1.9
CCOC(=O)N1CCc2c(sc(NC(=O)CN)c2C(=O)c2ccccc2Cl)C1	-2.45
Cc1ccc2cc(C=O)c(O)nc2c1	2.79
O=C(c1cccs1)N1CCN(C(=O)c2cccs2)CC1	-2.42
O=C(O)c1cccc(-n2c(=O)c3cc4c(=O)n(-c5cccc(C(=O)O)c5)c(=O)c4cc3c2=O)c1	3.47
Cc1ccc(CCNC(=O)CN2C(=O)CSc3ncccc32)cc1	4.22
CCN(CC)C(=O)c1ccc(CN2CCOCC2)o1	-4.32
O=C(O)Cn1cc2c(n1)CCCC2	3.24
OC1=C2C(=Nc3nc(-c4ccccc4)nn3C2c2ccccc2)CCC1 (stereo not shown)	-7.4
CCN1CCN(c2nc3c(c(=O)n(C)c(=O)n3C)n2CC(O)c2ccccc2)CC1 (stereo not shown)	-1.11
CCOCCCNC(=O)c1c(NC(=O)Cc2coc3ccc(CC)cc23)sc2c1CCC2	-0.671
CCCCN/C(C)=C\S(=O)(=O)c1ccccc1	-3.92
O=C(Nc1ccc(F)cc1F)c1cccc(Br)c1	4.22
CCC(Nc1ccc([N+](=O)[O-])cc1[N+](=O)[O-])C(=O)O (stereo not shown)	-4.01
COc1cc(OC)cc(-n2nnc(-c3nsc(NC(=O)c4ccc(C)cc4)n3)c2C)c1	3.95
O=C1N=C(N2CCCCC2)S/C1=C\c1ccco1	-1.78
CNC(=O)c1cc2c(=O)n3cccc(C)c3nc2n(CCOC)c1=N	-1.47
